From article PMC4434814
These are yes or no findings as the source states them, for the method shown. In cells and extracts the contact can be indirect. Some binding calls cover weakened binding; strength is not graded here. For some assays here: Tags and fused reporters may be left off the sequences shown.

Amino acid sequences for entries named in this document (tags omitted).
UniProt P60953: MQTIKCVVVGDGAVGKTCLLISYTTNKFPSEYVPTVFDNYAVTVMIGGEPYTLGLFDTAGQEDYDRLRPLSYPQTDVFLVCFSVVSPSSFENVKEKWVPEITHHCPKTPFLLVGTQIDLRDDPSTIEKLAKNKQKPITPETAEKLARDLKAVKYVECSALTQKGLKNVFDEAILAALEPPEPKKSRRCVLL
UniProt Q9H4E5: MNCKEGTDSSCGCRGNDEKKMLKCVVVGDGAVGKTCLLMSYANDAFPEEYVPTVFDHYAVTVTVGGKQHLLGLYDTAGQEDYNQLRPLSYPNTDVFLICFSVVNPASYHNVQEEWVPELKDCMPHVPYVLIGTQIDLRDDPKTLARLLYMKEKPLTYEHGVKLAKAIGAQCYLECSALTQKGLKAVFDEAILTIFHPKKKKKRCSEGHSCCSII
UniProt Q9BZ29: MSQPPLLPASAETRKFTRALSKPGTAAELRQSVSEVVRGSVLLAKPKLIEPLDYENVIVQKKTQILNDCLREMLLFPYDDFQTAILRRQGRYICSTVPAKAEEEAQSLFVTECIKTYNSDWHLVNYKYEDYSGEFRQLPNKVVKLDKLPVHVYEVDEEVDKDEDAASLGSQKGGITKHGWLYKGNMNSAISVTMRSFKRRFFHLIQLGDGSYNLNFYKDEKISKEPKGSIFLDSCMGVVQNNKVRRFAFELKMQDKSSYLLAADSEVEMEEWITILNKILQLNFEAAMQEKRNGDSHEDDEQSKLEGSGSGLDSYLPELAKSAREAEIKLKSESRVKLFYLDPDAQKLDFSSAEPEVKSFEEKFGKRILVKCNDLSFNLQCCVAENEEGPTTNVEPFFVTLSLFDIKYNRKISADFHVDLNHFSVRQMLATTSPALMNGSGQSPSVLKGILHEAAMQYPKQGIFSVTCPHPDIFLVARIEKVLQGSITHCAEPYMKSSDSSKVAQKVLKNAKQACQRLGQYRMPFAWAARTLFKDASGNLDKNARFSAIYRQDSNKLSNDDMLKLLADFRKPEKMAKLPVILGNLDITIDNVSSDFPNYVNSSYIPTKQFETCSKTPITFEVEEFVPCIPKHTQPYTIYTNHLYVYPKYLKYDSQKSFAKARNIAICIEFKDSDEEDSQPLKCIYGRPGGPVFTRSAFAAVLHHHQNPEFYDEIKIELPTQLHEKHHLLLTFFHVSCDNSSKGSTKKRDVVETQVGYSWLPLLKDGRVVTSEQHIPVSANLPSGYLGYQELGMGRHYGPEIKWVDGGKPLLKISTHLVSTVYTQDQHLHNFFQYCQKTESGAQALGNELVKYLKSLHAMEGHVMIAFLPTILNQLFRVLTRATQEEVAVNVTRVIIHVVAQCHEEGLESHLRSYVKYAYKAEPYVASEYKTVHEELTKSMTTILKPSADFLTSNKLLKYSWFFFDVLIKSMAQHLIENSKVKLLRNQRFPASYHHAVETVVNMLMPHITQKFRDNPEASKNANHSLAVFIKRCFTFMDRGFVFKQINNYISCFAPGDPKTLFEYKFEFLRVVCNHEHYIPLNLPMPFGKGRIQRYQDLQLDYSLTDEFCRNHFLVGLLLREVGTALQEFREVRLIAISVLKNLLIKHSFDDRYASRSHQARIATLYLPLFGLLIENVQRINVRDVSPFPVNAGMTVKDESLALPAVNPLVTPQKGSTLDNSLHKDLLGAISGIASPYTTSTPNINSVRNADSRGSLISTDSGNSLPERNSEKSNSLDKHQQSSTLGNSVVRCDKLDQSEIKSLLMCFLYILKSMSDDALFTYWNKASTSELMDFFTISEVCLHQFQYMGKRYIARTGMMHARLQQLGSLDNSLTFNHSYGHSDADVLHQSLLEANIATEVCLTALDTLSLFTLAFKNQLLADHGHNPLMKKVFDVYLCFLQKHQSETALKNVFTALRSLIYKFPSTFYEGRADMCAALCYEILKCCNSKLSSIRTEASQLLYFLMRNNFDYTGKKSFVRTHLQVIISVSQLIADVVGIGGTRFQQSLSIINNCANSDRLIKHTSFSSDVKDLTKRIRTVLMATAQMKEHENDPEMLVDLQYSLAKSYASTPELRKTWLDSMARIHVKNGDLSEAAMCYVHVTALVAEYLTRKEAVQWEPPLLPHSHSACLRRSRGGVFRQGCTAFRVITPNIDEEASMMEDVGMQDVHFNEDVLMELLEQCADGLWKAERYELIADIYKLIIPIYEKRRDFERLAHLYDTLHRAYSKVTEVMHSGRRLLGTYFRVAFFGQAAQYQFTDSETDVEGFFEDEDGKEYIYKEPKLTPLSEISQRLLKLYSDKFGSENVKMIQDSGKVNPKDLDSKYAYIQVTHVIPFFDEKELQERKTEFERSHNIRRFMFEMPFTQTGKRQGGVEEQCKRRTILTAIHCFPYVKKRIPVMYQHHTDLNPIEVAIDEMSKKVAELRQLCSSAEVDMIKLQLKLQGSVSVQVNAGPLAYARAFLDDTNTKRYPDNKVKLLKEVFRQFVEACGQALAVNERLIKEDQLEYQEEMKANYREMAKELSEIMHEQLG
UniProt Q5JSL3: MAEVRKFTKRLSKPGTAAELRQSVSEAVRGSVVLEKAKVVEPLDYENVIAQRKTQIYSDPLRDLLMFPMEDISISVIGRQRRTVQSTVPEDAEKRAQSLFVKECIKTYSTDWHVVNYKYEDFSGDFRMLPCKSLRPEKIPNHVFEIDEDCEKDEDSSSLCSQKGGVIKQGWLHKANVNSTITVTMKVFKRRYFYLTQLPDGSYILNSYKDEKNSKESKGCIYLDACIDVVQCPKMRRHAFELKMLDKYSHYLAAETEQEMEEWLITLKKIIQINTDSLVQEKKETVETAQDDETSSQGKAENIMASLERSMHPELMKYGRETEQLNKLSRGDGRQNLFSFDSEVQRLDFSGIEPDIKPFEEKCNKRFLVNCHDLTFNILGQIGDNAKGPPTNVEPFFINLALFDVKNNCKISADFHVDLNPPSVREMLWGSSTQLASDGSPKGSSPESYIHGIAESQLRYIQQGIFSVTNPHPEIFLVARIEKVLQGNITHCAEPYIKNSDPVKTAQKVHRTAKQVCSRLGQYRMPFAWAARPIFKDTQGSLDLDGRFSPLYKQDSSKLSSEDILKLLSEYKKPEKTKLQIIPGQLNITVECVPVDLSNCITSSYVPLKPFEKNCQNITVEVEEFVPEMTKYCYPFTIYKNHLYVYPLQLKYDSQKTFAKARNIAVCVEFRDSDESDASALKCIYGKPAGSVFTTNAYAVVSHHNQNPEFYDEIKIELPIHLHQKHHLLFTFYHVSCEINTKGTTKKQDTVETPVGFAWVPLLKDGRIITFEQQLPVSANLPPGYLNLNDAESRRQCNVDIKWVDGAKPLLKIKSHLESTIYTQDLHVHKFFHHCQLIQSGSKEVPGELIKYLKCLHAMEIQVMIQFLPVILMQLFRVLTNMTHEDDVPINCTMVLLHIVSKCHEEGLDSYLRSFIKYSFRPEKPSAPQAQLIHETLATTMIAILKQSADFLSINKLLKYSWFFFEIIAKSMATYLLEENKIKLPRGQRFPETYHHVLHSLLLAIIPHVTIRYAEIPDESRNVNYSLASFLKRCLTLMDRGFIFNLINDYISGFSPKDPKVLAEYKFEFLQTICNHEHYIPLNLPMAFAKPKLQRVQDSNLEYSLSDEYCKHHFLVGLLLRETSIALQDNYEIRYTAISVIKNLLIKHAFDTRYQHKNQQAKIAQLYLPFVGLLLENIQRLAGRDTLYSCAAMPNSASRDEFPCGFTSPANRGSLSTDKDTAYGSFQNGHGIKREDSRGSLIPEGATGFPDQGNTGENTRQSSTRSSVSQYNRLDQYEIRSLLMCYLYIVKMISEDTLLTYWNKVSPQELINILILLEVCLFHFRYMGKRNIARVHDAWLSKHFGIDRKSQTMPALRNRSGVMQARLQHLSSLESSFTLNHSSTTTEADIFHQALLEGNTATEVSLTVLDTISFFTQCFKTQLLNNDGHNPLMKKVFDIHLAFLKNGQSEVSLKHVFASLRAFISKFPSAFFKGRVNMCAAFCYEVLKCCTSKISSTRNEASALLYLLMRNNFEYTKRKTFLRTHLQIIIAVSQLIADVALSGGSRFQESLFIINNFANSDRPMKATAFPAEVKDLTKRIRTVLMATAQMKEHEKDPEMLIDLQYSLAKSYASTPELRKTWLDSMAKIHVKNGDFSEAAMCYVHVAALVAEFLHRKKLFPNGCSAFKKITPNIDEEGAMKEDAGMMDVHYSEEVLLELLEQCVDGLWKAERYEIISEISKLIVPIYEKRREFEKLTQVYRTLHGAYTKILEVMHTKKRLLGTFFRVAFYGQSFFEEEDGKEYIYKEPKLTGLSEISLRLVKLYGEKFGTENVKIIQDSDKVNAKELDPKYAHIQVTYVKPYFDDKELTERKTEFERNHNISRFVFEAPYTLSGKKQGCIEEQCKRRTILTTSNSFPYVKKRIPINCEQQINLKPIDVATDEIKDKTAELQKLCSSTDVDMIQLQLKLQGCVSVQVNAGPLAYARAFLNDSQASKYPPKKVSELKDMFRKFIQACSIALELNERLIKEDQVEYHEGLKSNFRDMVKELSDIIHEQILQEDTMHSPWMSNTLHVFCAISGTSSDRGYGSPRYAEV

What was measured:
GST-bound Cdc42 [1] = biological target: GST-bound Cdc42 (UniProt P60953); experiment: condition: only GDP-loaded GTPase (1 mM GDP, 10 mM MgCl2); pull-down; as a1, but GST-GTPase GDP-loaded (Solution B: 1 mM GDP and 10 mM MgCl2 instead of EDTA); only the target purified
GST-bound Cdc42 [2] = biological target: GST-bound Cdc42 (UniProt P60953); experiment: condition: only GTP-loaded GTPase (1 mM GTP, 10 mM MgCl2); pull-down; as a1, but GST-GTPase GTP-loaded (Solution C: 1 mM GTP and 10 mM MgCl2 instead of EDTA); only the target purified
GST-bound Cdc42 [3] = biological target: GST-bound Cdc42 (UniProt P60953); experiment: pull-down; GST-GTPase on glutathione-sepharose 4B beads (200 µg), nucleotide-depleted (Solution A: 20 mM Tris-Cl pH 7.5, 50 mM NaCl, 10 mM EDTA, 1 mM DTT, 0.1% Triton X-100, 5% glycerol); total protein extracts of transfected 293T cells added, 4°C overnight; immunoblot with HA or FLAG antibodies; only the target purified
GST-bound RhoD = biological target: T1, GST-bound RhoD (UniProt O00212); experiment: as above
T1 sequence: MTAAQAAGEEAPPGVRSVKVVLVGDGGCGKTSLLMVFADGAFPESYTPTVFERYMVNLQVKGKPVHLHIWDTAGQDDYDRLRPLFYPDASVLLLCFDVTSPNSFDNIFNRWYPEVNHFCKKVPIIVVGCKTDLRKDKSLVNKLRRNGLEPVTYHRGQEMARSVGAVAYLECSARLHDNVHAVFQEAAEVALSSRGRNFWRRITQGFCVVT

GST-bound RhoJ = GST-bound RhoJ (UniProt Q9H4E5); experiment: as above

binding (GST-bound Cdc42 [1])	binding (GST-bound Cdc42 [2])	binding (GST-bound Cdc42 [3])	binding (GST-bound RhoD)	binding (GST-bound RhoJ)	Substance
no binding	no binding	binds	binds weakly	–	FLAG-Dock9 (from UniProt Q9BZ29 1-2069)
no binding	no binding	binds	–	binds weakly	HA-Dock11 (from UniProt Q5JSL3 1-2073)
